# According to publication PMC4336329 (PLoS ONE, 2015):
# About 2,200 (0.71%) of roughly 310,000 compounds showed an effect of 50% or more. The effect is printed as a negative number. This is one part of the list.
# Biological target: human ether-à-go-go-related gene (hERG) potassium channel (human, UniProt Q12809)
# Test: primary screen, population patch clamp on CHO cells stably expressing hERG
# Sequence of human ether-à-go-go-related gene (hERG) potassium channel (Q12809 whole entry, looked up): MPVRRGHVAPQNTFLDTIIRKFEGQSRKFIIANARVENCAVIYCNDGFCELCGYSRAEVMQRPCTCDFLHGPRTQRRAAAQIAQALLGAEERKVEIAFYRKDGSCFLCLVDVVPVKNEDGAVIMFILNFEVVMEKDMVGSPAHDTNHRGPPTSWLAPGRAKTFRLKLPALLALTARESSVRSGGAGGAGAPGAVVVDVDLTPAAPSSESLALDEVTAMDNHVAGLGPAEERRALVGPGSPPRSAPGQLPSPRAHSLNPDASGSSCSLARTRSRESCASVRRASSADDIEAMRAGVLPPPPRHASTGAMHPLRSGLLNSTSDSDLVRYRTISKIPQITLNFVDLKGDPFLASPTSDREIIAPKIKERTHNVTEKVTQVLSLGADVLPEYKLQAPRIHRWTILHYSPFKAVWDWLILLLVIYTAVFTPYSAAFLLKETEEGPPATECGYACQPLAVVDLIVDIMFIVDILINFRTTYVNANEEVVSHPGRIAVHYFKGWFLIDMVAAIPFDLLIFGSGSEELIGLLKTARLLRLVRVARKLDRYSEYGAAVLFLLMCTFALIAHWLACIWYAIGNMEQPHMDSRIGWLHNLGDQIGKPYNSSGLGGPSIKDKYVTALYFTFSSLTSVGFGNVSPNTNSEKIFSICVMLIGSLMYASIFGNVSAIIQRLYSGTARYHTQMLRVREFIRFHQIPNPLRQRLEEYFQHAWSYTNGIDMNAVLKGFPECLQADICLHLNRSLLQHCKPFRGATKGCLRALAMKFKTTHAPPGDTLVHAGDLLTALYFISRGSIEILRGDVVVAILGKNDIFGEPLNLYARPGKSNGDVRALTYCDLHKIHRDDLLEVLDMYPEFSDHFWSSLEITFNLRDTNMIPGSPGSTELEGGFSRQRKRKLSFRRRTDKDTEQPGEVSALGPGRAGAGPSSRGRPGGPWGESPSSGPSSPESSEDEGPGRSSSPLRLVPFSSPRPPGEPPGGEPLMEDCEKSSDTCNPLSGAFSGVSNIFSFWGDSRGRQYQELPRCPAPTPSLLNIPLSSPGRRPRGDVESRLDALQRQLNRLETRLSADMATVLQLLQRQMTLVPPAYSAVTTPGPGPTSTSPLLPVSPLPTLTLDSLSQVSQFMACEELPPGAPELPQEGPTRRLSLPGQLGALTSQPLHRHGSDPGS
row,Compound,"hERG current change (%, negative = inhibition) at 1uM [%]"
1,CCOC(=O)Cn1nnc(-c2cccc(OC)c2)n1,9.82
2,O=C(Cc1ccccc1)NC(=S)Nc1ccc(OC(F)F)cc1,6.25
3,COc1cc(C(=S)N2CCCCC2)ccc1OCC(=O)Nc1ccccc1Cl,17.5
4,COc1ccc(-c2nc3ncccn3c2Nc2ccccc2)cc1,-4.18
5,COc1ccccc1-n1c(C)c(C(=O)O)c2cc(OC)c3ccccc3c21,11.3
6,CCN(CC)S(=O)(=O)c1ccc(C(=O)NCCCn2ccnc2)cc1,12.7
7,O=C(COC(=O)c1ccccc1NS(=O)(=O)c1cccs1)NC1CCCCC1,2.45
8,COc1ccc(CCNC(=O)Cc2ccc(NC3=NC4CS(=O)(=O)CC4S3)cc2)c(OC)c1 (centres unmarked),16.2
9,O=C(COC(=O)CNC(=O)c1ccccc1F)Nc1cccc(S(=O)(=O)N2CCCCCC2)c1,10.5
10,CCOC(=O)C(NC(C)=O)C(=O)Nc1ccc(C)cc1C (centres unmarked),14.2
11,O=C(CN1CCOc2ccccc21)NCc1cccs1,8.87
12,O=C(NCc1ccccn1)c1ccc(NS(=O)(=O)c2cccc([N+](=O)[O-])c2)cc1,15.4
13,CCCc1nc2c(sc3nc4c(cc32)COC(C)(C)C4)c(=O)o1,23.7
14,Cc1nn(C)c(C(=O)Nc2cccc(Nc3ccccc3)c2)c1[N+](=O)[O-],4.32
15,COc1cccc(NC(=O)CSc2nc3ccccc3c(=O)n2CCCC(=O)NCC2CCCO2)c1 (centres unmarked),-10.7
16,CCCc1cc(=O)[nH]c(SCc2cc(C(=O)OC)c(C)o2)n1,10.9
17,COc1ccc(-c2sc3ccccc3c2C#CCO)cc1,8.98
18,CCCOC(=O)c1ccc(S(N)(=O)=O)o1,18.2
19,CCCC(=O)Nc1cc(C(=O)N(C)CC(OC)OC)ccc1S(=O)(=O)c1ccc(C)cc1,13.7
20,O=C(Nc1cccc(NC(=O)c2cccc(Cl)c2)c1)c1cccnc1,2.06
21,O=C(NNc1ccc(C(F)(F)F)cc1[N+](=O)[O-])c1ccc(NS(=O)(=O)c2ccc(F)cc2)cc1,11.5
22,Cc1ccc(N2C(=O)c3ccccc3C2Nc2ccccc2)nc1 (centres unmarked),5.85

row,Compound,"hERG current change (%, negative = inhibition) at 1uM [%]"
1,Cc1noc(NS(=O)(=O)c2ccc(NC(=O)c3cnc4n(c3=O)CCS4)cc2)c1C,6.52
2,COc1cc2c(cc1OC)CN(C(=O)CSc1nc(N)c(C#N)cc1C#N)CC2,4.26
3,O=C(CCCCCn1c(=O)[nH]c2ccsc2c1=O)NCc1cccs1,5.07
4,CN1CCCN(C(=O)COc2ccc(Br)cc2)CC1,16.3
5,Cc1ccc(C(=O)CN(C(=O)c2ccc(Cl)cc2)N2C(=O)CCC2=O)cc1,-6.85
6,CC(Oc1cccnc1[N+](=O)[O-])C(=O)Nc1cccc(Cl)c1 (centres unmarked),14.3
7,Cc1nc(SCC(=O)Nc2cc(C)on2)c2c(C)c(C)sc2n1,6.61
8,CCN1C/C(=C/c2cccc([N+](=O)[O-])c2)C(=O)/C(=C/c2cccc([N+](=O)[O-])c2)C1,4.03
9,COc1ccc(N2CCN(C(=O)c3ccc(F)cc3)CC2)c([N+](=O)[O-])c1,-38.3
10,Cc1cccc(OCC(=O)Nc2ccc3c(c2)nc(CCN2CCC(C)CC2)n3C)c1,-47.9
11,COc1ccc(C(=O)C(Cc2ccccc2)N(C)C)cc1 (centres unmarked),-7.24
12,COc1cccc(/C=N/c2nc3ccccc3[nH]2)c1O,17
13,O=C(COc1coc(CN2CCN(c3ccccc3F)CC2)cc1=O)NC1CCCC1,3.4
14,CC1Sc2ccc(C(=O)NCc3ccccn3)cc2NC1=O (centres unmarked),3.23
15,O=C(Cn1cnnn1)Nc1cccc(S(=O)(=O)N2CCCCC2)c1,9.73
16,C=CCCC(=O)NC1CC(C)(C)Cc2c1cnn2-c1ccc(OC)cc1 (centres unmarked),0.46
17,CC(=O)c1ccc(OC(C)C(=O)NC2CCCCC2C)cc1 (centres unmarked),3.87
18,CC(C)(C)c1nc2scc(-c3ccc(Cl)cc3)c2c(=O)o1,13.5
19,NS(=O)(=O)c1ccc(NC(=O)/C(=C/c2ccncc2)NC(=O)c2ccccc2)cc1,17.6
20,COC(=O)CCCC(=O)NC(C)c1cnn(-c2ccccc2C)c1C (centres unmarked),-3.54
21,COc1ccc(C(=O)NNC(=O)C23CC4CC(CC(C4)C2)C3)cc1OC,1.28
22,COc1cccc(/C=N/NC(=O)c2ccccc2)c1OS(=O)(=O)c1ccccc1,1.32

row,Compound,"hERG current change (%, negative = inhibition) at 1uM [%]"
1,Cc1ccc(S(=O)(=O)N2[C@@H](c3ccc(F)cc3)C(C(=O)O)=CC[C@H]2c2cccc(Cl)c2)cc1,3.21
2,Cc1nc2ccccc2c2c1C(=O)N(Cc1cccnc1)C2=O,-1.81
3,O=c1oc2ccccc2cc1-c1csc(Cc2nc(-c3ccc(Cl)cc3)cs2)n1,20.6
4,Cc1cnc(NC(=O)CSc2nnc(-c3ccccc3)o2)s1,3.08
5,CC(C)CN(C(=O)CN1CCOCC1)c1c(N)n(CC(C)C)c(=O)[nH]c1=O,15.4
6,COc1cccc(C2CC(c3ccc(C)cc3)Nc3nc(N)nn32)c1 (centres unmarked),2.22
7,COc1cc2c(cc1NC(=O)COC(=O)/C=C/c1ccc([N+](=O)[O-])cc1)oc1ccccc12,-1.76
8,COc1cc(CN2CCCCCC2)cc(OC)c1OC.O=C(O)C(=O)O,14.9
9,Cc1cc2n(c(=O)c1C#N)CCCN2c1cccc(Cl)c1,-28
10,O=C(NC1CC1)C1CCCN1S(=O)(=O)c1ccc2ccccc2c1 (centres unmarked),10.7
11,CCc1nc2cc(CC(=O)O)ccc2o1,15.9
12,CCOC(=O)c1ccc(N2C(=O)C3C(/C=C/c4ccccc4)OC4(C(=O)c5ccccc5C4=O)C3C2=O)cc1 (centres unmarked),17.5
13,O=C(OCn1ncc(Br)c(Br)c1=O)c1ccc(F)cc1,3.04
14,S=c1nc2c(n[nH]1)c1ccccc1n2CCc1ccccc1,14.2
15,CCOc1ccc(-n2ccnc2SCC(=O)NCc2ccc3c(c2)OCO3)cc1,-5.32
16,CCN(CC)c1ccc(/C=N/NC(=O)c2ccc3nc[nH]c3c2)c(O)c1,23.6
17,COc1ccc(NC(=O)CN2CCN(c3ccccn3)CC2)cc1Cl,8.62
18,COc1ccc(S(=O)(=O)Nc2cccc3ccc(O)cc23)cc1,4.41
19,COc1cc(/C=C2\SC(=S)N(CCC(=O)N3CCN(C)CC3)C2=O)cc(OC)c1OC,-11.9
20,Cn1c(-c2sc3cc(C(F)(F)F)cnc3c2-c2ccccn2)n[nH]c1=S,8.25
21,CCC/C=N/Nc1nnc(Cc2ccccc2)c(=O)[nH]1,-6.7
22,CCN(CC)C(=O)CSc1nc(-c2cccs2)cc(-c2cccs2)c1C#N,-13.3

row,Compound,"hERG current change (%, negative = inhibition) at 1uM [%]"
1,CC1CCC(NC(=O)c2cc(Cl)nc3ccccc23)CC1 (centres unmarked),16.9
2,CC(C)c1ccc(CN2CC(C(=O)O)CC2=O)cc1 (centres unmarked),11.9
3,COc1ccccc1N(C)S(=O)(=O)c1ccc(C(=O)N2CCCC(C(F)(F)F)C2)cc1 (centres unmarked),11.3
4,O=C(Nc1ccnn1C1CCN(Cc2ccccc2)CC1)C1CCCC1,-15.9
5,CCOC(=O)C1CCN(Cc2cccc(Oc3ccccc3)c2)CC1,1.37
6,COc1cccc(-c2cccc(NC(=O)C3CCN(Cc4cccc(C)n4)CC3)c2)c1,-46.7
7,COc1ccccc1C(=O)N1CCC(N2CCN(c3ccccc3)CC2)CC1,8.69
8,COc1ccccc1-n1cnc2cc(C(=O)NCCCN3CCOCC3)ccc21,6.93
9,CC(C)c1ccc(S(=O)(=O)N2CCN(C(=O)n3ccnc3)CC2)cc1,-9.6
10,Fc1ccc(CN2CCN(C(=S)NCCc3ccccc3)CC2)c(Cl)c1,17.4
11,Cc1ccc(N2C(=O)NC(=O)C(CCc3ccccn3)(Cc3cccc(Cl)c3Cl)C2=O)cc1 (centres unmarked),0.912
12,COc1ccc(/C=N\NC(=O)c2ccccc2OC)cc1COc1ccccc1C,15
13,CNC(=O)C1(C)C=CC2(CCCCC2)N1C(=O)OC (centres unmarked),16.8
14,O=S(=O)(c1ccc2ccccc2c1)N1C=CC(C(F)(F)F)=NCC1,6.67
15,COc1ccc(-n2c(=O)c3c4c(sc3n(CC(=O)NCC3CCCO3)c2=O)CCCC4)c(OC)c1 (centres unmarked),10.2
16,COc1cc(/C=N/N=C(N)N)ccc1OCc1ccc(Cl)cc1,-10.3
17,O=C1c2ccccc2NC(c2cccs2)N1NS(=O)(=O)c1ccccc1 (centres unmarked),6.35
18,CN1C(=O)/C(=C/c2ccccc2OCc2ccc(C(=O)O)cc2)NC1=S,11.5
19,CCOc1ccc(S(=O)(=O)N(C)c2ccc(OCC(=O)N3c4ccc(C)cc4C4CN(C)CCC43)cc2)cc1 (centres unmarked),-2.11
20,COc1ccc(N2CCN(C(=O)CCSCc3ccccc3F)CC2)cc1,7.88
